Assay results reported in PubChem BioAssay AID485294 (National Center for Advancing Translational Sciences (NCATS), 2010).
Values joined by “and” are separate entries in the source; they are usually repeats but may differ in a detail not shown here. Equal values may be shown once. Hit rate of the full screen: of about 370,000 compounds, about 150 (0.041%) were called active. Inconclusive means that the source gave no clear call. Such entries were picked first, then a sample of the others. The call rests on the fitted dose curve; in most records, active means well fitted inhibition curve with a large enough effect; inconclusive means small, poorly fitted or top-dose-only effect; inactive means flat fitted curve, though single readings scatter. A potency beside an inconclusive call is a rough fit, not a confirmed value.
Further: nearly all actives have a fitted effect of over 25% in size.
Potency means the concentration at half of the fitted maximal effect; tags describe the fitted curve by direction and shape.

Each compound was assayed against Beta-lactamase (Escherichia coli (strain K12)) (UniProt P00811) (assay: qHTS Inhibitors of AmpC Beta-Lactamase (assay with detergent)). Settings: AmpC hydrolysis of nitrocefin, absorbance 480 nm, 0.01% Triton; series mostly up to 114 µM.
Chain of UniProt P00811 (P00811 whole entry, looked up): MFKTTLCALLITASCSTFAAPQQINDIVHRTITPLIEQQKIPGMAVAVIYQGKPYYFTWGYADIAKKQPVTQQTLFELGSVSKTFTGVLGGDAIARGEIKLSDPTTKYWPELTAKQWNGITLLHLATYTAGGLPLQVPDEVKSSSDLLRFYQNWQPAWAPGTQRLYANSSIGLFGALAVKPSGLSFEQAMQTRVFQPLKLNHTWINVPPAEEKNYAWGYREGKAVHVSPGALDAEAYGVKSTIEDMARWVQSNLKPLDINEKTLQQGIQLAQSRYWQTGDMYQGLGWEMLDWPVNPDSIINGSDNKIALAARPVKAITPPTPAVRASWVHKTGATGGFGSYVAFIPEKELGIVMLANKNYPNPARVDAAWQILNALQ
How it was run: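 AmpC (5.3 nM in the dispensed reagent) in 20 mM phosphate pH 7.0 with 0.01% (detergent screen) or 0.0001% Triton X-100 was preincubated with compounds for 15 min at room temperature. Nitrocefin was then added from an 800 uM solution, and hydrolysis was followed at 480 nm.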
With COc1cccc(CNC(=O)c2ccc(OC)c(S(=O)(=O)NC3CCCC3)c2)c1 the Potency was inconclusive: 70.8 µM [inhibitor, partial curve, poor fit].
Nc1ncn([C@@H]2O[C@H](CO)[C@@H](O)[C@H]2O)c(=O)n1 was tested, and the Potency was inconclusive: 39.8 µM [inhibitor, partial curve].
In the case of CC1C(C#N)=C(N)OC2=C1C(=O)CCC2 (configuration not stated), the Potency is reported as inconclusive: 5.01 µM [inhibitor, full curve, poor fit].
For COc1nc(NCCO)nc(Nc2cc(Cl)ccc2OC)n1, the Potency was inconclusive: 12.6 µM [inhibitor, partial curve].
In the case of CCCC1(CCC)C(=O)NC(=Nc2ccccc2)NC1=O, the Potency is reported as “inactive”.
For CCCCN(CCCC)C1=Nc2ccccc2N/C1=C(/C#N)C(=O)OCC, the Potency was inconclusive: 50.1 µM [inhibitor, partial curve, poor fit].
For CC[n+]1c(/C=C2\Sc3ccccc3N2C)ccc2cccc(C)c21, the Potency was “inactive”.
With N#CC(c1ccccc1)c1ccc(C(=O)c2ccc(F)cc2)cc1 (configuration not stated) the Potency was inconclusive: 2.51 µM [inhibitor, full curve, poor fit].
For COc1ccc(CN(CCN(C)C)c2ccccn2)cc1, the Potency was “inactive and inconclusive: 708 nM [inhibitor, full curve, poor fit]”.
For O=C(OCc1cc(=O)n2c(n1)sc1ccccc12)c1ccc(O)cc1O, the Potency was inconclusive: 39.8 µM [inhibitor, partial curve].
In the case of COCCN1C(=O)C(=O)/C(=C(/O)c2ccc(S(=O)(=O)N3CCOCC3)cc2)C1c1ccc(O)c(OC)c1 (configuration not stated), the Potency is reported as inconclusive: 4.47 µM [inhibitor, full curve, poor fit].
For CC(=O)NCCNC(=O)CCCc1nnc2n(CC(C)C)c(=O)c3sccc3n12, the Potency was “inactive”.
With Cc1nc2ccccc2n1Cc1ccc(Cl)cc1 the Potency was inconclusive: 17.8 µM [inhibitor, full curve, poor fit].
With CCOc1ccc(C(=O)Nc2ccc(OCc3cc(=O)n4cccc(C)c4n3)cc2)cc1 the Potency was “inactive”.
With COC(=O)c1ccc(CSc2n[nH]c(C)n2)o1 the Potency was inconclusive: 5.62 µM [inhibitor, full curve, poor fit].
In the case of OC(COCc1ccc2c(c1)OCO2)CN1CCCCC1 (configuration not stated), the Potency is reported as “inactive”.
With Cc1ccc(S(=O)(=O)N2CCC(=O)N(C(COCc3ccc(Cl)c(Cl)c3)Cc3ccccc3)CC2)cc1 (configuration not stated) the Potency was inconclusive: 31.6 µM [inhibitor, partial curve, poor fit].
For COc1ccc(S(=O)(=O)n2nc(-c3ccco3)nc2NCc2ccc(C(C)C)cc2)cc1, the Potency was “inactive”.
With O=C(NCCc1ccccc1)Nc1ccc2c(c1)OCO2 the Potency was “inactive”.
Clc1ccccc1-c1nn2c(-c3ccccn3)nnc2s1 was tested, and the Potency was inconclusive: 44.7 µM [inhibitor, partial curve, poor fit].
C=C1C2C[C@H](O)C(C)(C)[C@@]2(O)[C@H](O)C[C@]23C[C@@](C)(O)[C@H](CC[C@H]12)[C@H]3OC(C)=O (some centres not stated) was tested, and the Potency was inconclusive: 1.26 µM [inhibitor, full curve, poor fit].
COc1ccc(S(=O)(=O)N2CCN(C(=O)[C@@H]3CCC(=O)N3C3OC(=O)c4ccccc43)CC2)cc1 (some centres not stated) was tested, and the Potency was inconclusive: 5.01 µM [inhibitor, full curve, poor fit].
For CCOP(=O)(c1ccc(N(C)C)cc1)C(O)c1cccnc1 (configuration not stated), the Potency was inconclusive: 112 µM [inhibitor, partial curve, poor fit].
In the case of COC(=O)Nc1nnc(-c2ccc(OC)cc2)s1, the Potency is reported as “inactive”.
CCOC(=O)c1cnc(C(F)(F)F)nc1Oc1ccccc1 was tested, and the Potency was “inactive”.
For CSCC[C@H](NC(=O)[C@@H]1Cc2ccccc2CN1)C(=O)Nc1ccc2c(c1)OCCO2, the Potency was inconclusive: 12.6 µM [inhibitor, full curve, poor fit].
For CCc1ccc(NC(=O)CSc2nc(-c3ccc(C)cc3)nc3c2Cc2c(CO)cnc(C)c2O3)cc1, the Potency was inconclusive: 25.1 µM [inhibitor, partial curve].
In the case of CCOc1ccc2nc(N3CCCC(C(=O)Nc4ccccc4CC)C3)sc2c1 (configuration not stated), the Potency is reported as “inactive”.
With CC1(C)Cc2cccc(OCC(=O)OCc3nnc(-c4ccccc4)o3)c2O1 the Potency was inconclusive: 0.631 µM [inhibitor, full curve, poor fit].
In the case of Cc1ccc(-c2nnc(N3CC(C)OC(C)C3)c3ccccc23)cc1 (configuration not stated), the Potency is reported as inconclusive: 39.8 µM [inhibitor, partial curve, poor fit].
With O=S(=O)(NC1CC(NS(=O)(=O)OCC(Cl)(Cl)Cl)C2CCCCC12)OCC(Cl)(Cl)Cl (configuration not stated) the Potency was “inactive”.
With CC(NC(=O)c1ccccc1NS(=O)(=O)c1ccc(CCC(=O)O)cc1)c1ccccc1 (configuration not stated) the Potency was inconclusive: 50.1 µM [inhibitor, partial curve].
With Cc1ccc(CN2CCC(Oc3cccc(C(=O)N(C)CCN(C)C)c3)CC2)cc1C the Potency was inconclusive: 7.94 µM [inhibitor, full curve].
For Cc1cc(C(=O)O)c(S(C)(=O)=O)s1, the Potency was inconclusive: 28.2 µM [inhibitor, full curve, poor fit].
In the case of COc1ccccc1CCNS(=O)(=O)c1cc2c3c(c1)CCN3C(=O)CC2, the Potency is reported as inconclusive: 0.631 µM [inhibitor, full curve, poor fit].
In the case of Fc1ccc2nc(N3CCOCC3)sc2c1, the Potency is reported as “inactive”.
In the case of COc1ccccc1C1C(C(=O)c2ccco2)=C(O)C(=O)N1c1cc(C)on1 (configuration not stated), the Potency is reported as inconclusive: 56.2 µM [inhibitor, partial curve].
With Cc1ccc(CSc2nc3c(c(=O)[nH]2)C(c2ccncc2)C2=C(CCCC2=O)N3)cc1 (configuration not stated) the Potency was inconclusive: 0.631 µM [inhibitor, full curve].
CCN1/C(=C\C=C\C2=[N+](CC)c3ccccc3C2(C)C)C(C)(C)c2ccccc21 was tested, and the Potency was “inactive”.
COc1ccc(-c2nc(N)ncc2-c2csc(C)n2)c(O)c1 was tested, and the Potency was inconclusive: 5.62 µM [inhibitor, partial curve].
For COc1ccc2c(c1)c(C(=O)N/N=C/c1ccc(OC)c(OC)c1)c(C)n2C, the Potency was “inactive”.
In the case of Cc1ccc(C)c(NC(=O)c2nc(Cl)ccc2Cl)c1, the Potency is reported as inconclusive: 3.98 µM [inhibitor, full curve, poor fit].
